This continues a long series; more values of the same kind are listed elsewhere.
System: cell lines from the Cancer Cell Line Encyclopedia (CCLE)
Experiment: High-throughput cell viability assay, CCLE cell line panel (n = 356)
Assay type: cell-based, human
Experimental: Cell lines were partitioned into sensitive and insensitive groups based on compound potency (IC50). […] All other cell lines were obtained from ATCC (American Type Culture Collection), DSMZ (Deutsche Sammlung von Mikroorganismen und Zellkulturen), and HSRRB (Health Science Research Resources Bank) and cultured in RPMI or Dulbecco's modified Eagle's medium plus 10% FBS (Invitrogen, Carlsbad, CA) at 37°C, 5% CO2.

COc1cc2c(cc1OC(C)C)[C@H](c1ccc(Cl)cc1)N(c1ccc(N(C)C[C@H]3CC[C@H](N4CCNC(=O)C4)CC3)cc1)C(=O)C2 [NVP-CFC218]
Amax (L3.3, TP53 WT): -23.35%
sensitivity call (L3.3, TP53 WT): insensitive (Sensitivity call for each compound was applied according to a cut-off of 4 µM for IC50 and -50% for Amax)
Amax (L-363, TP53 MUT): 1.09%
sensitivity call (L-363, TP53 MUT): insensitive (Sensitivity call for each compound was applied according to a cut-off of 4 µM for IC50 and -50% for Amax)
Amax (LC-1/sq-SF, TP53 MUT): 12.18%
sensitivity call (LC-1/sq-SF, TP53 MUT): insensitive (Sensitivity call for each compound was applied according to a cut-off of 4 µM for IC50 and -50% for Amax)
Amax (LP-1, TP53 MUT): -61.82%
sensitivity call (LP-1, TP53 MUT): insensitive (Sensitivity call for each compound was applied according to a cut-off of 4 µM for IC50 and -50% for Amax)
Amax (LS1034, TP53 MUT): -11.78%
sensitivity call (LS1034, TP53 MUT): insensitive (Sensitivity call for each compound was applied according to a cut-off of 4 µM for IC50 and -50% for Amax)
Amax (LU99, TP53 WT): -74.84%
sensitivity call (LU99, TP53 WT): sensitive (Sensitivity call for each compound was applied according to a cut-off of 4 µM for IC50 and -50% for Amax)
Amax (LUDLU-1, TP53 MUT): -45.77%
sensitivity call (LUDLU-1, TP53 MUT): insensitive (Sensitivity call for each compound was applied according to a cut-off of 4 µM for IC50 and -50% for Amax)
Amax (Loucy, TP53 MUT): -53.62%
sensitivity call (Loucy, TP53 MUT): insensitive (Sensitivity call for each compound was applied according to a cut-off of 4 µM for IC50 and -50% for Amax)
Amax (MC116, TP53 MUT): -73.96%
sensitivity call (MC116, TP53 MUT): insensitive (Sensitivity call for each compound was applied according to a cut-off of 4 µM for IC50 and -50% for Amax)
Amax (MDA-MB-415, TP53 MUT): -55.83%
sensitivity call (MDA-MB-415, TP53 MUT): insensitive (Sensitivity call for each compound was applied according to a cut-off of 4 µM for IC50 and -50% for Amax)
Amax (MDA-MB-453, TP53 WT): -3.32%
sensitivity call (MDA-MB-453, TP53 WT): insensitive (Sensitivity call for each compound was applied according to a cut-off of 4 µM for IC50 and -50% for Amax)
Amax (MDA-MB-468, TP53 MUT): -0.27%
sensitivity call (MDA-MB-468, TP53 MUT): insensitive (Sensitivity call for each compound was applied according to a cut-off of 4 µM for IC50 and -50% for Amax)
Amax (MFE-280, TP53 MUT): -60.45%
sensitivity call (MFE-280, TP53 MUT): insensitive (Sensitivity call for each compound was applied according to a cut-off of 4 µM for IC50 and -50% for Amax)
Amax (MFE-296, TP53 MUT): -4.03%
sensitivity call (MFE-296, TP53 MUT): insensitive (Sensitivity call for each compound was applied according to a cut-off of 4 µM for IC50 and -50% for Amax)
Amax (MFE-319, TP53 MUT): 1.74%
sensitivity call (MFE-319, TP53 MUT): insensitive (Sensitivity call for each compound was applied according to a cut-off of 4 µM for IC50 and -50% for Amax)
Amax (MG-63, TP53 WT): -26.13%
sensitivity call (MG-63, TP53 WT): insensitive (Sensitivity call for each compound was applied according to a cut-off of 4 µM for IC50 and -50% for Amax)
Amax (MIA PaCa-2, TP53 MUT): 1.28%
sensitivity call (MIA PaCa-2, TP53 MUT): insensitive (Sensitivity call for each compound was applied according to a cut-off of 4 µM for IC50 and -50% for Amax)
Amax (MOG-G-CCM, TP53 MUT): -5.90%
sensitivity call (MOG-G-CCM, TP53 MUT): insensitive (Sensitivity call for each compound was applied according to a cut-off of 4 µM for IC50 and -50% for Amax)
Amax (MOLM-13, TP53 WT): -94.52%
sensitivity call (MOLM-13, TP53 WT): sensitive (Sensitivity call for each compound was applied according to a cut-off of 4 µM for IC50 and -50% for Amax)
Amax (MONO-MAC-1, TP53 MUT): -2.52%
sensitivity call (MONO-MAC-1, TP53 MUT): insensitive (Sensitivity call for each compound was applied according to a cut-off of 4 µM for IC50 and -50% for Amax)
Amax (MOR/CPR, TP53 MUT): -1.44%
sensitivity call (MOR/CPR, TP53 MUT): insensitive (Sensitivity call for each compound was applied according to a cut-off of 4 µM for IC50 and -50% for Amax)
Amax (MPP 89, TP53 WT): 3.91%
sensitivity call (MPP 89, TP53 WT): insensitive (Sensitivity call for each compound was applied according to a cut-off of 4 µM for IC50 and -50% for Amax)
Amax (NALM-6, TP53 WT): -96.38%
sensitivity call (NALM-6, TP53 WT): sensitive (Sensitivity call for each compound was applied according to a cut-off of 4 µM for IC50 and -50% for Amax)
Amax (NB-4, TP53 MUT): -20.20%
sensitivity call (NB-4, TP53 MUT): insensitive (Sensitivity call for each compound was applied according to a cut-off of 4 µM for IC50 and -50% for Amax)
Amax (NCI-H211, TP53 MUT): -5.53%
sensitivity call (NCI-H211, TP53 MUT): insensitive (Sensitivity call for each compound was applied according to a cut-off of 4 µM for IC50 and -50% for Amax)
Amax (NCI-H358, TP53 WT): -34.66%
sensitivity call (NCI-H358, TP53 WT): insensitive (Sensitivity call for each compound was applied according to a cut-off of 4 µM for IC50 and -50% for Amax)
Amax (NCI-H441, TP53 MUT): -21.27%
sensitivity call (NCI-H441, TP53 MUT): insensitive (Sensitivity call for each compound was applied according to a cut-off of 4 µM for IC50 and -50% for Amax)
Amax (NCI-H520, TP53 MUT): -1.85%
sensitivity call (NCI-H520, TP53 MUT): insensitive (Sensitivity call for each compound was applied according to a cut-off of 4 µM for IC50 and -50% for Amax)
Amax (NCI-H650, TP53 MUT): -38.20%
sensitivity call (NCI-H650, TP53 MUT): insensitive (Sensitivity call for each compound was applied according to a cut-off of 4 µM for IC50 and -50% for Amax)
Amax (NCI-H747, TP53 MUT): -4.17%
sensitivity call (NCI-H747, TP53 MUT): insensitive (Sensitivity call for each compound was applied according to a cut-off of 4 µM for IC50 and -50% for Amax)
Amax (NCI-H810, TP53 MUT): -5.81%
sensitivity call (NCI-H810, TP53 MUT): insensitive (Sensitivity call for each compound was applied according to a cut-off of 4 µM for IC50 and -50% for Amax)
Amax (NCI-H889, TP53 MUT): 3.61%
sensitivity call (NCI-H889, TP53 MUT): insensitive (Sensitivity call for each compound was applied according to a cut-off of 4 µM for IC50 and -50% for Amax)
Amax (NCI-H1373, TP53 MUT): -0.95%
sensitivity call (NCI-H1373, TP53 MUT): insensitive (Sensitivity call for each compound was applied according to a cut-off of 4 µM for IC50 and -50% for Amax)
Amax (NCI-H1435, TP53 MUT): 1.81%
sensitivity call (NCI-H1435, TP53 MUT): insensitive (Sensitivity call for each compound was applied according to a cut-off of 4 µM for IC50 and -50% for Amax)
Amax (NCI-H1573, TP53 MUT): 7.38%
sensitivity call (NCI-H1573, TP53 MUT): insensitive (Sensitivity call for each compound was applied according to a cut-off of 4 µM for IC50 and -50% for Amax)
Amax (NCI-H1581, TP53 MUT): 1.44%
sensitivity call (NCI-H1581, TP53 MUT): insensitive (Sensitivity call for each compound was applied according to a cut-off of 4 µM for IC50 and -50% for Amax)
Amax (NCI-H1666, TP53 WT): -58.51%
sensitivity call (NCI-H1666, TP53 WT): sensitive (Sensitivity call for each compound was applied according to a cut-off of 4 µM for IC50 and -50% for Amax)
Amax (NCI-H1734, TP53 MUT): 23.48%
sensitivity call (NCI-H1734, TP53 MUT): insensitive (Sensitivity call for each compound was applied according to a cut-off of 4 µM for IC50 and -50% for Amax)
Amax (NCI-H1792, TP53 MUT): -2.85%
sensitivity call (NCI-H1792, TP53 MUT): insensitive (Sensitivity call for each compound was applied according to a cut-off of 4 µM for IC50 and -50% for Amax)
Amax (NCI-H1915, TP53 MUT): 3.71%
sensitivity call (NCI-H1915, TP53 MUT): insensitive (Sensitivity call for each compound was applied according to a cut-off of 4 µM for IC50 and -50% for Amax)
Amax (NCI-H1944, TP53 WT): -55.40%
sensitivity call (NCI-H1944, TP53 WT): insensitive (Sensitivity call for each compound was applied according to a cut-off of 4 µM for IC50 and -50% for Amax)
Amax (NCI-H1975, TP53 MUT): -20.93%
sensitivity call (NCI-H1975, TP53 MUT): insensitive (Sensitivity call for each compound was applied according to a cut-off of 4 µM for IC50 and -50% for Amax)
Amax (NCI-H2052, TP53 WT): -68.74%
sensitivity call (NCI-H2052, TP53 WT): sensitive (Sensitivity call for each compound was applied according to a cut-off of 4 µM for IC50 and -50% for Amax)
Amax (NCI-H2087, TP53 MUT): -22.14%
sensitivity call (NCI-H2087, TP53 MUT): insensitive (Sensitivity call for each compound was applied according to a cut-off of 4 µM for IC50 and -50% for Amax)
Amax (NCI-H2172, TP53 WT): -28.81%
sensitivity call (NCI-H2172, TP53 WT): insensitive (Sensitivity call for each compound was applied according to a cut-off of 4 µM for IC50 and -50% for Amax)
Amax (NCI-H2196, TP53 MUT): -2.21%
sensitivity call (NCI-H2196, TP53 MUT): insensitive (Sensitivity call for each compound was applied according to a cut-off of 4 µM for IC50 and -50% for Amax)
Amax (NCI-H2347, TP53 WT): 1.66%
sensitivity call (NCI-H2347, TP53 WT): insensitive (Sensitivity call for each compound was applied according to a cut-off of 4 µM for IC50 and -50% for Amax)
Amax (NIH:OVCAR-3, TP53 MUT): -3.87%
sensitivity call (NIH:OVCAR-3, TP53 MUT): insensitive (Sensitivity call for each compound was applied according to a cut-off of 4 µM for IC50 and -50% for Amax)
Amax (OC 316, TP53 MUT): -2.87%
sensitivity call (OC 316, TP53 MUT): insensitive (Sensitivity call for each compound was applied according to a cut-off of 4 µM for IC50 and -50% for Amax)
Amax (OCI-AML2, TP53 WT): -84.70%
